PubChem BioAssay AID463173 (ICCB-Longwood Screening Facility, Harvard Medical School, 2010)
About 4,300 (8.3%) of roughly 52,000 compounds were called active. No stated cut-off is given here; in the data, active means survival mostly below about 52% (no sharp cut-off); inactive means mostly above about 56%. This is one part of the list.

Test system: DeltatarO mutant
Experiment: S. aureus survival, RN4220 and DeltatarO strains – OD600, teichoic acid synthesis inhibitors, primary screen (AID 463173)
Settings: S. aureus RN4220 wild type/DeltatarO growth, OD600, 18 h, active compounds read low, screened at 18.75 µg/mL (by protocol)

Compound | survival
Nc1nonc1C(=O)NCCNCc1ccc(Cl)c(Cl)c1 | inactive: 68%
COc1ccccc1NC(=O)Cn1c(=O)n(Cc2ccccc2)c(=O)c2c3c(sc21)CN(C(C)=O)CC3 | inactive: 92%
CCn1ccc2c(OCC(=O)NCc3ccc(C)cc3)cccc2c1=O | inactive: 81%
Cc1oc(C)c(C(N)=O)c1C(N)=O | inactive: 100%
Cc1cc(C)nc(-n2nc(C)c3c2NC(=O)CC3c2cc(F)ccc2F)n1 (stereo unspecified) | inactive: 87%
CCn1nc(C)c(CCN(C)C(=O)Nc2cc(C)cc(C)c2)c1C | inactive: 83%
Cc1ccc(CSc2nc3ccc(NC(=O)COc4ccc(F)cc4)cc3s2)cc1 | inactive: 89%
O=C(Nc1cnc(N2CCC(N3CCCCC3)CC2)c(C(=O)O)c1)c1ccc(Br)cc1 | inactive: 102%
CCc1ccc(CNC(=O)Cn2c(-c3cccs3)cc3cc(F)ccc32)cc1 | inactive: 119%
COc1ccc(N2CCN(C(C)C(=O)N3CCCC3)CC2)cc1 (stereo unspecified) | inactive: 85%
COc1ccc(-n2c(=O)c3c(c4cc(OC)ccc4n3C)n(Cc3ccc(F)cc3Cl)c2=O)cc1 | inactive: 89%
Cc1cc(Cl)ccc1OCC(=O)Nc1c(C(=O)c2ccccc2)oc2ccccc12 | inactive: 89%
O=C(CSc1ncc(-c2ccccc2)[nH]1)Nc1cccc(C(F)(F)F)c1 | active: 12%
COc1cc(Cn2c(=O)sc3ccccc32)ccc1OCCC(C)C | active: -2%
CC(C)c1ccc2c(c1)-c1ccccc1S(=O)(=O)N2CC(=O)N1CCCCC1 | inactive: 85%
Cc1ccccc1-c1nc(CS(=O)(=O)CC(=O)Nc2cc(Cl)cc(Cl)c2)c(C)o1 | inactive: 109%
Cn1c(=O)cc(SCC(=O)N2CCN(c3ccccc3F)CC2)c2cc(Cl)ccc21 | inactive: 70%
CC(C)Sc1ncc(Cl)c(C(=O)Nc2ccc(S(=O)(=O)Nc3ncccn3)cc2)n1 | inactive: 50%
COc1ccc(CNC(=O)CSc2n[nH]c(-c3ccc(OC)cc3)n2)cc1 | active: -5%
CCNC(=O)C1CCCN1C(=O)OCC(C)C (stereo unspecified) | inactive: 97%
Cc1ccc(NC(=O)c2cc3c([nH]c2=O)CC(C)(C)CC3=O)c(C)c1 | inactive: 93%
COc1ccccc1NC(=O)CCS(=O)(=O)c1cc2c3c(c1)CCN3C(=O)CC2 | inactive: 99%
O=C(O)CN1CCCC1=O | inactive: 96%
CCC1CCCCN1C(=O)c1nn(-c2ccc(OC)cc2)c(=O)c2c1c1ccccc1n2C (stereo unspecified) | inactive: 110%
O=C(NCc1ccccc1Cl)c1cc(=O)[nH]c2ccc(S(=O)(=O)N3CCCCC3)cc12 | inactive: 54%
Cc1ccccc1CCNC(=O)C1CCN(c2nc3ccccc3nc2C(F)(F)F)CC1 | inactive: 72%
